# The list shows a part of the results.
# B1: TbCVNHOb (Tuber borchii) (protein)
# chain: MSFYASSEDVRTIEEGGRTWLVGRARRADGSWQDIKLDLDNIIGNRDGHLTWGEQNFTQSASDIRFNFEGGSNVPVLRAKLRNAAGGEQESDLNLGERLTNNNGDLVFN
# Legend:
# Assay in all cases: glycan array binding signal (z-score within array); higher = stronger binding
# Details in all cases: glycan notation: IUPAC condensed, linker removed
# [1] = target: Fuc(a1-2)[GalNAc(a1-3)]Gal(b1-4)[Fuc(a1-3)]GlcNAc
# How it was run: (§1)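 Negative Z-scores can be read as non-binding. The Z-score is calculated within each array and then averaged across arrays of one protein sequence at different concentrations or buffers and across linkers. Arrays, 3228 in all, were curated from the Consortium for Functional Glycomics database and kept only where the protein sequence was available.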
# [2] = target: Fuc(a1-2)[GalNAc(a1-4)]Gal(b1-4)GlcNAc
# How it was run: as §1
# [3] = target: Fuc(a1-2)[GalNAc(b1-3)]Gal
# How it was run: as §1
# Fuc(a1-3)GlcNAc = target: Fuc(a1-3)GlcNAc
# How it was run: as §1
# [4] = target: Fuc(a1-3)[Gal(b1-4)]Glc6S
# How it was run: as §1
# [5] = target: Fuc(a1-3)[Gal(b1-4)]GlcNAc
# How it was run: as §1
# [6] = target: Fuc(a1-3)[Gal(b1-4)]GlcNAc(b1-2)Man(a1-3)[Fuc(a1-3)[Gal(b1-4)]GlcNAc(b1-2)Man(a1-6)]Man(b1-4)GlcNAc(b1-4)GlcNAc
# How it was run: as §1
# [7] = target: Fuc(a1-3)[Gal(b1-4)]GlcNAc(b1-2)Man(a1-6)[Gal(b1-4)GlcNAc(b1-2)Man(a1-3)]Man(b1-4)GlcNAc(b1-4)GlcNAc
# How it was run: as §1
# [8] = target: Fuc(a1-3)[Gal(b1-4)]GlcNAc(b1-3)Gal(b1-3)[Fuc(a1-4)]GlcNAc
# How it was run: as §1
# [9] = target: Fuc(a1-3)[Gal(b1-4)]GlcNAc(b1-4)Gal(b1-4)[Fuc(a1-3)]GlcNAc
# How it was run: as §1
# [10] = target: Fuc(a1-3)[Gal(b1-4)]GlcNAc(b1-4)Gal(b1-4)[Fuc(a1-3)]GlcNAc(b1-4)Gal(b1-4)[Fuc(a1-3)]GlcNAc
# How it was run: as §1
# [11] = target: Fuc(a1-3)[Gal(b1-4)]GlcNAc6S
# How it was run: as §1
# [12] = target: Fuc(a1-3)[Gal3S(b1-4)]Glc6S
# How it was run: as §1
# [13] = target: Fuc(a1-3)[Gal3S(b1-4)]GlcNAc
# How it was run: as §1
# [14] = target: Fuc(a1-3)[Gal3S(b1-4)]GlcNAc6S
# How it was run: as §1
# [15] = target: Fuc(a1-3)[GalNAc(b1-4)]GlcNAc
# How it was run: as §1
# Fuc(a1-4)GlcNAc = target: Fuc(a1-4)GlcNAc
# How it was run: as §1
# Fuc(b1-3)GlcNAc = target: Fuc(b1-3)GlcNAc
# How it was run: as §1
# Gal(a1-2)Gal = target: Gal(a1-2)Gal
# How it was run: as §1
# Gal(a1-3)Gal = target: Gal(a1-3)Gal
# How it was run: as §1
# Gal(a1-3)Gal(b1-3)GlcNAc = target: Gal(a1-3)Gal(b1-3)GlcNAc
# How it was run: as §1
# Gal(a1-3)Gal(b1-4)Glc = target: Gal(a1-3)Gal(b1-4)Glc
# How it was run: as §1
# Gal(a1-3)Gal(b1-4)GlcNAc = target: Gal(a1-3)Gal(b1-4)GlcNAc
# How it was run: as §1
# [16] = target: Gal(a1-3)Gal(b1-4)[Fuc(a1-3)]GlcNAc
# How it was run: as §1
# Gal(a1-3)GalNAc = target: Gal(a1-3)GalNAc
# How it was run: as §1
# [17] = target: Gal(a1-3)[Gal(a1-4)]Gal(b1-4)GlcNAc
# How it was run: as §1
# Gal(a1-4)Gal(b1-4)Glc = target: Gal(a1-4)Gal(b1-4)Glc
# How it was run: as §1
# Gal(a1-4)Gal(b1-4)GlcNAc = target: Gal(a1-4)Gal(b1-4)GlcNAc
# How it was run: as §1
# Gal(a1-4)GlcNAc = target: Gal(a1-4)GlcNAc
# How it was run: as §1
# Gal(a1-6)Glc = target: Gal(a1-6)Glc
# How it was run: as §1
# Gal(b1-2)Gal = target: Gal(b1-2)Gal
# How it was run: as §1
# Gal(b1-3)Gal = target: Gal(b1-3)Gal
# How it was run: as §1
# Gal(b1-3)Gal(b1-4)GlcNAc = target: Gal(b1-3)Gal(b1-4)GlcNAc
# How it was run: as §1
# Gal(b1-3)GalNAc = target: Gal(b1-3)GalNAc
# How it was run: as §1
# [18] = target: Gal(b1-3)GalNAc(b1-3)Gal(a1-4)Gal(b1-4)Glc
# How it was run: as §1
# [19] = target: Gal(b1-3)GalNAc(b1-4)Gal(b1-4)Glc
# How it was run: as §1
# [20] = target: Gal(b1-3)GalNAc(b1-4)[Neu5Ac(a2-3)]Gal(b1-4)Glc
# How it was run: as §1
# Gal(b1-3)GlcNAc = target: Gal(b1-3)GlcNAc
# How it was run: as §1
# [21] = target: Gal(b1-3)GlcNAc(b1-2)Man(a1-3)[Gal(b1-3)GlcNAc(b1-2)Man(a1-6)]Man(b1-4)GlcNAc(b1-4)GlcNAc
# How it was run: as §1
# [22] = target: Gal(b1-3)GlcNAc(b1-3)Gal(b1-3)GlcNAc
# How it was run: as §1
# [23] = target: Gal(b1-3)GlcNAc(b1-3)Gal(b1-4)Glc
# How it was run: as §1
# [24] = target: Gal(b1-3)GlcNAc(b1-3)Gal(b1-4)GlcNAc
# How it was run: as §1
# [25] = target: Gal(b1-3)[Fuc(a1-4)]GlcNAc
# How it was run: as §1
# [26] = target: Gal(b1-3)[Fuc(a1-4)]GlcNAc(b1-3)Gal(b1-3)[Fuc(a1-4)]GlcNAc
# How it was run: as §1
# [27] = target: Gal(b1-3)[Fuc(a1-4)]GlcNAc(b1-3)Gal(b1-4)GlcNAc
# How it was run: as §1
binder,measurement,setting,value
B1,glycan array binding signal (z-score),[1],0.144
same,glycan array binding signal (z-score),[2],-0.096
same,glycan array binding signal (z-score),[3],-0.107
same,glycan array binding signal (z-score),Fuc(a1-3)GlcNAc,0.012
same,glycan array binding signal (z-score),[4],0.185
same,glycan array binding signal (z-score),[5],-0.074
same,glycan array binding signal (z-score),[6],-0.139
same,glycan array binding signal (z-score),[7],-0.121
same,glycan array binding signal (z-score),[8],-0.147
same,glycan array binding signal (z-score),[9],0.251
same,glycan array binding signal (z-score),[10],-0.154
same,glycan array binding signal (z-score),[11],-0.236
same,glycan array binding signal (z-score),[12],0.111
same,glycan array binding signal (z-score),[13],-0.09
same,glycan array binding signal (z-score),[14],-0.058
same,glycan array binding signal (z-score),[15],-0.267
same,glycan array binding signal (z-score),Fuc(a1-4)GlcNAc,-0.278
same,glycan array binding signal (z-score),Fuc(b1-3)GlcNAc,-0.129
same,glycan array binding signal (z-score),Gal(a1-2)Gal,-0.036
same,glycan array binding signal (z-score),Gal(a1-3)Gal,0.126
same,glycan array binding signal (z-score),Gal(a1-3)Gal(b1-3)GlcNAc,-0.047
same,glycan array binding signal (z-score),Gal(a1-3)Gal(b1-4)Glc,0.765
same,glycan array binding signal (z-score),Gal(a1-3)Gal(b1-4)GlcNAc,-0.054
same,glycan array binding signal (z-score),[16],-0.039
same,glycan array binding signal (z-score),Gal(a1-3)GalNAc,-0.127
same,glycan array binding signal (z-score),[17],-0.074
same,glycan array binding signal (z-score),Gal(a1-4)Gal(b1-4)Glc,0.23
same,glycan array binding signal (z-score),Gal(a1-4)Gal(b1-4)GlcNAc,-0.047
same,glycan array binding signal (z-score),Gal(a1-4)GlcNAc,0.154
same,glycan array binding signal (z-score),Gal(a1-6)Glc,-0.31
same,glycan array binding signal (z-score),Gal(b1-2)Gal,-0.093
same,glycan array binding signal (z-score),Gal(b1-3)Gal,-0.078
same,glycan array binding signal (z-score),Gal(b1-3)Gal(b1-4)GlcNAc,-0.136
same,glycan array binding signal (z-score),Gal(b1-3)GalNAc,-0.117
same,glycan array binding signal (z-score),[18],-0.287
same,glycan array binding signal (z-score),[19],-0.23
same,glycan array binding signal (z-score),[20],-0.245
same,glycan array binding signal (z-score),Gal(b1-3)GlcNAc,-0.016
same,glycan array binding signal (z-score),[21],-0.148
same,glycan array binding signal (z-score),[22],-0.152
same,glycan array binding signal (z-score),[23],5.86
same,glycan array binding signal (z-score),[24],-0.19
same,glycan array binding signal (z-score),[25],-0.119
same,glycan array binding signal (z-score),[26],-0.04
same,glycan array binding signal (z-score),[27],-0.225
